Experimental data as given in PubChem BioAssay AID662 (National Center for Advancing Translational Sciences (NCATS), 2007).
The whole screen tested about 71,000 compounds, of which about 1,800 (2.5%) were called active. The inconclusive results got no clear call from the source; some entries with a clear call stand among them for comparison. Calls come from the whole dose curve; as a rule, active = well fitted activation curve with a large enough effect in the signal ratio, with a control signal flat (not every such curve was filed as active); inconclusive = small, poorly fitted or top-dose-only effect, or effect the other way, or a change in a side signal; inactive = flat fitted curve, though single readings scatter; the % refers to the signal ratio. Potencies of inconclusive entries are doubtful fits and often do not repeat.

test: Cell signaling CRE-BLA (Fsk stim); conditions: CHO CRE-bla reporter (cAMP response element driving beta-lactamase), forskolin EC10, beta-lactamase ratio; activity change, negative = inhibition: at 38.2 µM (top of the series) unless noted; for activity change, negative = inhibition: % of control where 0% means no effect
Method in brief: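 The 460nm/530nm emission ratio after CCF4 loading defined %Activity, from which AC50 values were obtained. CRE-bla CHO cells received compound dilution series together with an EC10 level of NKH 477 for 3 hours at 37 degrees Celsius.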
Potency is the fitted concentration of half-maximal effect; tags give direction and shape of the fitted curve.

SMILES | activity change, negative = inhibition | Potency
COc1ccccc1NCCC(=O)OCC(=O)NCc1ccco1 | inactive: -10.8% | 
COCCNc1nc(-c2ccc(C(=O)N(C)C)cc2)nc2ccccc12 |  | inconclusive: 12.6 µM [rising, partial curve]
COc1cc2nncc(SCc3ccc(Cl)c(Cl)c3)c2cc1OC | inconclusive: 27.3% [at 7.6 µM] | 
O=C(O)c1cc(C(=O)C(=O)c2cc(C(=O)O)c(O)c3ccccc23)c2ccccc2c1O | inactive: 5.38% [at 7.6 µM] | 
CC1CCCC(NC(=O)CSc2nnc(N)s2)C1C (centres undefined) |  | inconclusive: 0.1 µM [falling, single point]
CCc1nnc(NC(=O)CSc2nnc(-c3cc4ccccc4cc3O)n2CCOC)s1 | inconclusive: 27% [cytotoxic] | 
COCCN(CCOC)C(=O)c1cc2c(=O)n3ccccc3nc2s1 |  | inconclusive: 10 µM [rising, partial curve]
N#Cc1ccsc1NC(=O)c1cnccn1 |  | inconclusive: 0.631 µM [falling, full curve]
N#C/C(=C\Nc1ccccn1)C(=O)c1ccco1 | inactive: -4.39% [at 7.6 µM] | 
Cc1cc(NS(=O)(=O)c2ccc(NC(=O)c3cnc4scc(C)n4c3=O)cc2)nc(C)n1 |  | inconclusive: 12.6 µM [rising, single point]
CCN1CCN(C(=O)c2nn(-c3ccc(C)cc3)c(=O)c3c2c2ccccc2n3C)CC1 | inconclusive: 4.04% | 
CSC1=Nc2sc3c(c2C2=NCCN12)CCCC3 |  | inconclusive: 12.6 µM [rising, partial curve]
COc1cc(C)c(C(C)C)cc1S(=O)(=O)NCCCn1ccnc1 | inconclusive: 18% | 
O=C(CSc1nc(-c2ccco2)cc(C(F)(F)F)n1)N1CCc2ccccc2C1 |  | inconclusive: 15.8 µM [rising, single point]
O=C(CSc1n[nH]c(=O)n1C1CC1)Nc1cc(Cl)ccc1Oc1ccccc1 | inconclusive: -25% | 
C[C@@]1(C(=O)O)NCCc2cc(O)c(O)cc21 |  | inconclusive: 15.8 µM [rising, partial curve]
O=c1[nH]c(SCCOc2ccccc2)nc2ccccc12 | inconclusive: 26.9% | 
Nc1c(C(=O)c2cccs2)oc2ccccc12 | inconclusive: 14.3% | 
CCc1nc(NC(C)C)c2oc3ccccc3c2n1 |  | active: 1.58 µM
CCOC(=O)C(C)n1cnc2c(nnn2-c2ccc(C)cc2)c1=O (centres undefined) | inconclusive: 18.2% | 
O=C(CCS(=O)(=O)c1cccc2nonc12)Nc1cccc2c1CCCC2 | inconclusive: 8.83% | 
Nc1c(S(=O)(=O)c2cccs2)c2nc3ccccc3nc2n1Cc1cccs1 |  | inconclusive: 10 µM [rising, partial curve]
Cn1c(C(=O)NCc2cccs2)cc2c(=O)n(C)c3ccccc3c21 | inconclusive: 22.2% | 
Cc1cc(NC(=O)CSc2nc(C(C)C)nc3sc4c(c23)CCCC4)no1 | inconclusive: 19% | 
CCOC(=O)c1cc(-c2ccncc2)nc2c1c(C)nn2C |  | inconclusive: 5.01 µM [rising, partial curve]

SMILES | activity change, negative = inhibition | Potency
Cn1c(=O)[nH]c(=O)c2c1nc(N1CCCCCC1)n2Cc1cccc2ccccc12 | inconclusive: 11.9% | 
O=C(CN1CCN(Cc2ccccc2)CC1)c1ccc(Br)cc1 |  | inconclusive: 10 µM [rising, single point]
CC(=O)Nc1ccc(Nc2nc(C)nc3c2oc2ccccc23)cc1 |  | inconclusive: 7.94 µM [rising, single point]
C=C1C[C@@]23C[C@]1(O)CC[C@@H]2[C@]12C=C[C@@H](O)[C@@](C)(C(=O)O1)[C@@H]2[C@@H]3C(=O)O | inconclusive: -8.55% | 
COc1ccc(-n2nc3ccccc3n2)cc1 | inactive: -14.8% | 
CC(C)COC(=O)N1CC(O)CC1C(=O)O (centres undefined) | inconclusive: -29.1% | 
CC[C@H]1C2=C3C(CC[C@H]4C(OCc5ccc(F)cc5C(F)(F)F)OC[C@](C)([C@@H]34)N(C(=O)OC(C)(C)C)C2)C(COC(C)=O)C1COC(C)=O (some centres undefined) | inconclusive: -4.09% | 
O=C(Cc1cc(=O)oc2cc(O)ccc12)NCC1CCC(C(=O)O)CC1 (centres undefined) |  | inconclusive: 12.6 µM [rising, partial curve]
CC1(C)N=C2C(=[N+]1[O-])CCC/C2=N\O | inactive: -1.31% | 
CCOC(=O)CCC(=O)Nc1ccc(S(=O)(=O)N2CCCC2)cc1 |  | inconclusive: 12.6 µM [falling, single point]
Cc1ccc(C(=O)OCc2nnc(-c3ccccc3)o2)o1 | inconclusive: 25.9% | 
Cc1noc(C)c1C(=O)N1CCC2(CCCN(Cc3ccccc3)C2)CC1 | inactive: -5.04% | 
COc1cc(C)c(Cl)c(C)c1S(=O)(=O)NCc1ccc2c(c1)OCO2 | inconclusive: -23.2% | 
COC(=O)c1ccc(C(NC(=O)OCc2ccccc2)/C(F)=C/[C@@H](C)C(=O)N(C)Cc2cccnc2)cc1 (some centres undefined) | inactive: -5.24% | 
Cc1cccc(N2CCN(C(=O)C3CCCCC3)CC2)c1C | inconclusive: -26.3% | 
COc1cccc(C2=CC(c3ccc(OC)c(OC)c3OC)n3nnnc3N2)c1 (centres undefined) |  | inconclusive: 6.31 µM [rising, partial curve, poor fit]
COc1ccc(-c2nc(N3CCOCC3)nc3nn4c(C)c(CCC(=O)O)c(C)nc4c23)cc1 |  | inconclusive: 0.02 µM [falling, full curve, poor fit]
CS(=O)(=O)Nc1cccc(-c2nc(NCc3cccs3)c3ccccc3n2)c1 |  | inconclusive: 2 µM [rising, partial curve]
CC(=O)c1c(C)nc2ccccc2c1N | inconclusive: 29.4% | 
Cc1ccc(NC(=O)C2CCN(S(=O)(=O)c3cnc[nH]3)CC2)nc1 | inconclusive: -3.99% | 
Cc1cc(Nc2ccc(Br)cc2)n2nc(C)nc2n1 |  | inconclusive: 7.94 µM [rising, partial curve]
CCCCNC(=O)CC(NS(=O)(=O)c1ccc(C)cc1)c1ccco1 (centres undefined) | inconclusive: -10.6% | 
Cc1cnc(C(=O)Nc2ccccc2-c2ccc(C)o2)cn1 | inactive: -1.22% | 
COC(=O)CN(C#N)c1nc(OC)nc(N(C)C)n1 | inconclusive: 28.4% | 
